{
  "source": "PubChem BioAssay AID651820",
  "about": "(National Center for Advancing Translational Sciences (NCATS), 2012)",
  "note": "About 12,000 (3.5%) of roughly 340,000 compounds were called active. This list was built around the results that the source calls inconclusive (neither active nor inactive); the mix of calls is not that of the screen. The call rests on the fitted dose curve; in most records, active means well fitted inhibition curve with a large enough effect; inconclusive means small, poorly fitted or top-dose-only effect, or another doubt; inactive means no such curve, though single readings can be large or run the other way. Potencies of inconclusive entries are left out as doubtful fits. On the % scale 0 is the no-effect control and ±100 the full control effect; potency means the concentration at half of the fitted maximal effect; tags describe the fitted curve by direction and shape.",
  "data": [
    {"assay": "qHTS Assay for Inhibitors of Hepatitis C Virus (HCV)", "settings": "Huh7.5.1 HCVcc-Cre (HCVcc is cell-culture hepatitis C virus) infection, luciferase reporter, 44 h; activity change, negative = inhibition: at 41.8 µM (top of the series) unless noted", "method_in_brief": "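1,000 cells/well; 4 h culture; + compound; + HCVcc-Cre (~0.5 moi); 44 h; luciferase substrate, RT 15 min; read 15 sec.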", "values": [
      {"smiles": "COc1ccccc1NC(=O)C(=O)Nc1ccc2c(c1)N(C(=O)C1CC1)CCC2", "activity change, negative = inhibition": "inactive: -3.9%"},
      {"smiles": "COc1cc(C=C(c2nc3ccccc3s2)c2nc3ccccc3s2)cc(OC)c1O", "Potency": "active: 10 µM"},
      {"smiles": "Cc1ccc(-c2csc3nc4ccc(C(=O)NCCO)cc4c(=O)n23)cc1", "activity change, negative = inhibition": "inactive: -23% [at 8.37 µM]"},
      {"smiles": "COc1cccc(NC2=Nc3cccc4cccc2c34)c1", "Potency": "inconclusive [inhibitor, single point]"},
      {"smiles": "CC/C=C/C(=O)N1CC2(CC(c3cccc(NC(=O)CCCCC)c3)=NO2)C[C@H]1C(N)=O", "note": "(stereo not given in full)", "activity change, negative = inhibition": "inactive: -3.96%"},
      {"smiles": "COc1ccccc1Oc1ccc(N/C=C/C(=O)c2ccco2)cc1", "Potency": "inconclusive [inhibitor, single point]"},
      {"smiles": "COCCn1c(SCC(=O)N2CCC(C)CC2)nc2c([nH]c3ccccc32)c1=O", "Potency": "inconclusive [inhibitor, single point]"},
      {"smiles": "CN1CCc2c(n(CC(O)CNCc3ccccc3)c3ccccc23)C1=O", "note": "(stereo not given)", "Potency": "inconclusive [inhibitor, partial curve]"},
      {"smiles": "COc1cccc(OCC(O)CN2CCN(CCN3C(=O)c4cccc5cccc(c45)C3=O)CC2)c1", "note": "(stereo not given)", "Potency": "inconclusive [inhibitor, single point]"},
      {"smiles": "Cc1cc(C)c2cc(CN(Cc3ccco3)C(=S)NCC3CCCO3)c(=O)[nH]c2c1", "note": "(stereo not given)", "Potency": "inconclusive [inhibitor, single point]"},
      {"smiles": "O=C(NC1C=CS(=O)(=O)C1)c1sc2ccccc2c1Cl", "note": "(stereo not given)", "Potency": "inconclusive [inhibitor, single point]"},
      {"smiles": "COc1ccccc1CNC(=O)c1ccc(N2CCOCC2)c([N+](=O)[O-])c1", "Potency": "inconclusive [inhibitor, single point]"},
      {"smiles": "O=[N+]([O-])c1c(Nc2cccc(O)c2)cc(Cl)c2nonc12", "Potency": "inconclusive [inhibitor, single point]"},
      {"smiles": "CC(NC(=O)/C(=C/c1cccc([N+](=O)[O-])c1)NC(=O)c1ccco1)C(=O)O", "note": "(stereo not given)", "activity change, negative = inhibition": "inactive: 5.96%"},
      {"smiles": "CC(C)NC(=O)c1ccccc1NC(=O)c1ccccc1N(C)S(C)(=O)=O", "Potency": "inconclusive [inhibitor, single point]"},
      {"smiles": "N#CCSc1nc2ccccc2c(=O)n1C1CCCCC1", "Potency": "inconclusive [inhibitor, single point]"},
      {"smiles": "COC(=O)c1sccc1-c1ccc(/C=N/OC(=O)c2ccccc2)o1", "Potency": "inconclusive [inhibitor, full curve, poor fit]"},
      {"smiles": "Cc1ccc(C(=O)NC(=S)NCc2cccnc2)c(C)c1", "activity change, negative = inhibition": "inactive: 3.74%"},
      {"smiles": "C=C1CC2(OC1=O)c1ccccc1CCc1ccccc12", "Potency": "inconclusive [inhibitor, single point]"},
      {"smiles": "O=C(Nc1ccc2nc(-c3cccnc3)[nH]c2c1)C12CC3CC(CC(C3)C1)C2", "Potency": "inconclusive [inhibitor, partial curve]"},
      {"smiles": "COc1ccc(-c2nnc(SCC(=O)N3c4ccccc4Sc4ccccc43)o2)cc1", "Potency": "inconclusive [inhibitor, single point]"},
      {"smiles": "COc1ccc(C(C)(C)C)cc1NC(=O)CCc1c(C)noc1C", "Potency": "inconclusive [inhibitor, full curve, poor fit]"},
      {"smiles": "FC(F)(F)c1cc(NC2CCCCC2)ccn1", "activity change, negative = inhibition": "inactive: -12%"},
      {"smiles": "CN1CCN(c2ccc(C=O)cc2)CC1", "activity change, negative = inhibition": "inactive: 9.63%"},
      {"smiles": "Cc1ccc(C)c(NC(=O)CCCCCCCCCCC2COCCO2)c1", "note": "(stereo not given)", "Potency": "inconclusive [inhibitor, single point]"},
      {"smiles": "CCCN(C(=O)c1ccccc1N)c1c(C)n(C)n(-c2ccccc2)c1=O", "Potency": "inconclusive [inhibitor, single point]"},
      {"smiles": "CC(C)(C)c1ccc(C(=O)Nc2ccc(NC(=O)c3ccco3)cc2)cc1", "Potency": "inconclusive [inhibitor, partial curve]"},
      {"smiles": "O=C1NC(=O)C(=Cc2cc3c(cc2[N+](=O)[O-])OCO3)C(=O)N1", "activity change, negative = inhibition": "inactive: 0.738%"},
      {"smiles": "CCOc1ccc(CN2CCC(C(=O)Nc3cccc(-c4ccn[nH]4)c3)CC2)cc1Cl", "Potency": "inconclusive [inhibitor, single point]"},
      {"smiles": "Cc1noc(C)c1CSc1nnc(-c2cc(Cl)ccc2Cl)n1N", "activity change, negative = inhibition": "inactive: -23.7%"},
      {"smiles": "CCOc1ccc(/C=N/NC(=S)NC2CC3CCC2C3)cc1", "note": "(stereo not given)", "Potency": "inconclusive [inhibitor, partial curve, poor fit]"},
      {"smiles": "CN(C)C(=O)/C(=C\\c1ccc(-c2cccc([N+](=O)[O-])c2)o1)NC(=O)c1ccccc1", "Potency": "inconclusive [inhibitor, single point]"},
      {"smiles": "CN1C(=S)N(c2cccnc2)C(=O)/C1=C\\c1ccc(C(C)(C)C)cc1", "Potency": "inconclusive [inhibitor, single point]"},
      {"smiles": "CC1(NC(=O)c2ccccc2)CCN(CCCc2ccccc2)C1=O", "note": "(stereo not given)", "Potency": "inconclusive [inhibitor, full curve, poor fit]"},
      {"smiles": "COc1ccc(S(=O)(=O)N2CCOCC2)cc1NC(=O)COC(=O)c1ccc([N+](=O)[O-])s1", "activity change, negative = inhibition": "inactive: 12.9%"},
      {"smiles": "COc1ccc(CCC(=O)Nc2nnc(C(F)(F)F)s2)cc1", "activity change, negative = inhibition": "inactive: 7.22%"},
      {"smiles": "COc1cc(-c2nc(-c3ccc4c(c3)-c3ccccc3S4(=O)=O)c(-c3ccccc3)[nH]2)cc(OC)c1OC", "Potency": "active: 2 µM"},
      {"smiles": "CCOC(=O)[C@@H]1CSCCS(=O)(=O)N1Cc1ccccc1Br", "Potency": "inconclusive [inhibitor, single point]"},
      {"smiles": "Cc1cccc(N=C2NC(=O)S/C2=C\\c2ccco2)c1", "activity change, negative = inhibition": "inactive: -15.6%"},
      {"smiles": "N=C1S/C(=C\\c2ccco2)C(=O)N1c1nccs1", "Potency": "inconclusive [inhibitor, single point]"},
      {"smiles": "Cc1ccc(NC(=O)c2c(C)nc3sc(C(=O)NC4CCCC4)c(N)c3c2-c2ccco2)c(C)c1", "Potency": "inconclusive [inhibitor, single point]"},
      {"smiles": "COc1ccc(C(=O)NCCNc2nc3ccc(C)cc3cc2C#N)cc1OC", "Potency": "inconclusive [inhibitor, partial curve]"},
      {"smiles": "Cc1cccc(NC(=O)C2CCCN(S(=O)(=O)c3cccc4nsnc34)C2)c1", "note": "(stereo not given)", "Potency": "inconclusive [inhibitor, partial curve]"},
      {"smiles": "CCN(CC1COc2ccccc2O1)C(=O)CN1C(=O)NC(C)(c2ccc(C)cc2)C1=O", "note": "(stereo not given)", "Potency": "inconclusive [inhibitor, single point]"},
      {"smiles": "COc1ccc(N2CCN(C(=O)CCc3ccc(S(=O)(=O)NCC(C)C)cc3)CC2)cc1", "Potency": "inconclusive [inhibitor, single point]"},
      {"smiles": "Cc1ccc(NC(=O)N(Cc2ccco2)C(C)c2ccco2)cc1C", "note": "(stereo not given)", "activity change, negative = inhibition": "inactive: -6%"},
      {"smiles": "COc1ccccc1NS(=O)(=O)/C=C/c1ccccc1", "activity change, negative = inhibition": "inactive: -0.0932%"},
      {"smiles": "CSc1nc(C)c2c(n1)N(c1ccc(F)cc1)CC2", "Potency": "inconclusive [inhibitor, partial curve]"},
      {"smiles": "CN(Cc1ccccc1OCCO)CC1CCCN(CCc2ccc(Cl)cc2)C1", "note": "(stereo not given)", "Potency": "inconclusive [inhibitor, full curve]"},
      {"smiles": "N#Cc1nc(COc2ccc(-c3ccccc3)cc2)oc1NCc1cccnc1", "Potency": "inconclusive [inhibitor, single point]"},
      {"smiles": "COc1cc2c(cc1NC(=O)c1ccc(C)c([N+](=O)[O-])c1)oc1ccccc12", "Potency": "inconclusive [inhibitor, partial curve, poor fit]"},
      {"smiles": "Cc1cc(-c2ccccc2)c(C#N)c(SCC(N)=O)n1", "Potency": "inconclusive [inhibitor, single point]"},
      {"smiles": "COc1cc(C2C(C#N)=C(C)NC(C)=C2C#N)cc(OC)c1OC", "activity change, negative = inhibition": "inactive: 14.9%"},
      {"smiles": "N#CCC(=O)Nc1ccc(C(=O)OCC(=O)C23CC4CC(CC(C4)C2)C3)cc1", "activity change, negative = inhibition": "inactive: 13.2%"},
      {"smiles": "Cc1ccc(S(=O)(=O)N2CCCCC2)cc1NC(=O)Cn1ncc(Cl)c(Cl)c1=O", "Potency": "active: 0.708 µM"},
      {"smiles": "Cc1ccc(NC(=O)Nc2nc3ccc(S(C)(=O)=O)cc3s2)cc1", "Potency": "inconclusive [inhibitor, full curve, poor fit]"},
      {"smiles": "C=CCn1c(SCC(=O)NCCO)nc2sc(C)c(C)c2c1=O", "activity change, negative = inhibition": "inactive: -4.34%"},
      {"smiles": "O=C1/C(=C/c2ccco2)N=C(N2CCCCC2)N1c1ccccc1", "Potency": "inconclusive [inhibitor, single point]"},
      {"smiles": "CCCCCC(=O)NC(=S)NC1C2CC3CC(C2)CC1C3", "note": "(stereo not given)", "Potency": "inconclusive [inhibitor, single point]"},
      {"smiles": "O=C(COc1ccccc1)NCC(=O)N/N=C/c1cc(Br)ccc1OCc1ccccc1", "Potency": "inconclusive [inhibitor, single point]"},
      {"smiles": "CCCN(CC(=O)Nc1ccccc1C)C(=O)COc1c(C)cccc1C", "activity change, negative = inhibition": "inactive: 0.41%"},
      {"smiles": "Cc1nn(Cc2ccccc2Cl)c2sc(C(=O)Nc3nccs3)cc12", "Potency": "inconclusive [inhibitor, partial curve]"},
      {"smiles": "C=CCNc1nc(-c2ccccc2)nc(-n2ccnc2)n1", "Potency": "active: 2.51 µM"},
      {"smiles": "Cc1sc(NC(=O)c2ccco2)c(C(=O)c2ccc(Cl)cc2)c1C", "activity change, negative = inhibition": "inactive: -0.365%"},
      {"smiles": "CC(NC(=O)/C=C/c1ccco1)c1nc2ccccc2n1Cc1cccc(Cl)c1", "note": "(stereo not given)", "Potency": "inconclusive [inhibitor, single point]"},
      {"smiles": "CCOC(=O)C1=C(NC(=S)NC(=O)c2ccccc2)c2ccccc2CC1(C)CC", "note": "(stereo not given)", "Potency": "inconclusive [inhibitor, single point]"},
      {"smiles": "CC(=O)Nc1ccccc1C(=O)C(=O)Nc1cccc(C(=O)NCc2ccccc2)c1", "Potency": "inconclusive [inhibitor, single point]"},
      {"smiles": "CCN(CC)C(=O)c1nc[nH]c1C(=O)O[C@@H](C)c1ccccc1", "activity change, negative = inhibition": "inactive: 15.4%"},
      {"smiles": "COc1ccccc1N(CC(O)COc1ccccc1C)S(=O)(=O)c1ccccc1", "note": "(stereo not given)", "activity change, negative = inhibition": "inactive: 15.4%"},
      {"smiles": "CC1(C)CN=C(NCc2ccccc2Cl)S1", "activity change, negative = inhibition": "inactive: 24.6%"}
    ]}
  ]
}
